± gives the uncertainty stated by the source. Whole data set: some 9,900 compounds, median “viability index relative to DMSO control” near 1, cut for the lowest 2% near 0.85. The list shows a part of the results.

The test relates to Plasmodium falciparum NF54 stage V gametocytes. Put plainly: viability index relative to DMSO control (fraction); higher = less gametocyte killing. The following applies: 2.5 µM, library set: Broad Institute DOS, incubation time: 72 h. In outline:
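P. falciparum NF54 stage V gametocytes (serum-free medium, 0.75% gametocytemia, 1.25% hematocrit) were exposed to compound at 2.5 µM for 72 hr at 37°C under low oxygen, then stained with MitoTracker Red CMXRos and saponin for one to two hours. Red particles of 20–70 µm2 in one field per well were counted, and the viability index is that count scaled to the plate mean of solvent-only wells.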
With `CC(=O)N1CC2(C1)[C@H](c1ccc(-c3cccc(C#N)c3)cc1)[C@H](CO)N2CCC(F)(F)F`, the viability index was 1.05 ± 0.11.

`CS(=O)(=O)N1[C@H](C#N)[C@@H](c2ccc(C#Cc3cccc(F)c3)cc2)[C@@H]1CO` registered a viability index of 1.1 ± 0.067.

Regarding `O=C(C[C@@H]1CC[C@@H]2[C@H](COC[C@H](O)CN2C(=O)c2cc(Cl)cc(Cl)c2)O1)N1CCc2ccccc2C1`, the viability index turned out to be 1.032 ± 0.0059.

Regarding `O=C(NCC1CC1)[C@@H]1[C@@H](CO)[C@@H]2Cn3c(ccc(-c4cccnc4)c3=O)[C@@H]2N1Cc1cocn1`, the viability index was determined as 1.12 ± 0.062.

Consider `CC(C)NC(=O)Nc1ccc2c(c1)C(=O)N(C)[C@H]1CC[C@H](CC(=O)NCc3ccc(F)cc3)O[C@H]1CO2`, for which the viability index is 0.919 ± 0.034.

For `COc1ccc(NC(=O)N2CCCCN3[C@@H](CO)[C@H](c4ccc(-c5ccccc5F)cc4)[C@@H]3C2)cc1`, the viability index came to 1.01 ± 0.043.

With `CCS(=O)(=O)N1CC[C@@]2(CC1)CN[C@@H](CO)c1[nH]c3cc(OC)ccc3c21`, the viability index was determined as 0.995 ± 0.03.

Take `N#C[C@H]1[C@@H](c2ccccc2-c2ccc(F)cc2)[C@@H](CO)N1C(=O)Cc1cccnc1`: the viability index worked out at 1.15 ± 0.046.

In the case of `CC(=O)N1[C@@H](CO)[C@H](c2ccccc2)[C@@H]1CN(CC1CCC1)C(=O)CN(C)C`, the viability index was found to be 1.01 ± 0.057.

Compound `CNC(=O)C[C@H]1CC[C@H]2[C@@H](COc3ccc(NC(=O)Nc4ccc(C#N)cc4)cc3C(=O)N2C)O1` registered a viability index of 1.02 ± 0.057.

For the compound `O=C(C[C@H]1CC[C@@H](NC(=O)C2CC2)[C@H](CO)O1)Nc1ccccc1`, the viability index was 0.839 ± 0.19.

Consider `C/C=C/c1ccccc1[C@@H]1[C@@H](CO)N(C(=O)Cc2ccccn2)[C@H]1C#N`, for which the viability index came out at 1.14 ± 0.12.

As to `O=C(C[C@H]1CC[C@@H]2[C@H](COC[C@H](O)CN2S(=O)(=O)c2ccccc2)O1)NCC1CCCCC1`, the viability index was 1.03 ± 0.046.

In turn, `CO[C@H](CN(C)C(=O)Nc1ccc(Cl)cc1)[C@@H](C)CN(Cc1ccccc1Cl)[C@H](C)CO` came in with a viability index of 0.989 ± 0.015.

`CO[C@H]1CC[C@H]2CCOc3c(C#N)cccc3C(=O)N(C)CC3(CCCCC3)CC(=O)N(C)C[C@@H]1O2` came in with a viability index of 0.9754 ± 0.0087.

Consider `Cc1noc(C)c1S(=O)(=O)N(C)C[C@@H]1OCc2cnnn2CCCC(=O)N([C@H](C)CO)C[C@@H]1C`, for which the viability index turned out to be 1.07 ± 0.043.

`CN1C(=O)c2cc(NC(=O)NCc3ccccc3)ccc2OC[C@H]2O[C@H](CC(=O)NCC3CCCCC3)CC[C@@H]21` yielded a viability index of 0.926 ± 0.046.

Take `CCS(=O)(=O)Nc1ccc2c(c1)C(=O)N(C)[C@@H]1CC[C@H](CC(=O)NCc3ccccc3F)O[C@H]1CO2`: the viability index was found to be 1.11 ± 0.093.

`Fc1ccc(F)c(CN2[C@@H]3CNC[C@H]2[C@@H]3c2ccc(-c3ccncc3)cc2)c1` yielded a viability index of 1 ± 0.065.

`C[C@@H]1CN([C@@H](C)CO)C(=O)c2cccc(NC(=O)c3ccncc3)c2O[C@H]1CN(C)Cc1ccc2c(c1)OCO2` showed a viability index of 0.9415 ± 0.0089.
